# Results as given in PubChem BioAssay (NCATS).
# This list was built around the results that the source calls inconclusive (neither active nor inactive); the mix of calls is not that of the screen. A potency beside an inconclusive call is a rough fit, not a confirmed value. Calls of active or inactive are those of the source. Calls follow the shape of the dose curve; as a rule, active = well fitted activation curve with a large enough effect in the main read-out, with a control signal flat (not every such curve was filed as active); inconclusive = small, poorly fitted or top-dose-only effect, or effect the other way, or a change in a side signal; inactive = flat fitted curve, though single readings scatter.
# Target: 3',5'-cyclic-AMP phosphodiesterase 4B (Homo sapiens) (UniProt Q07343)
# Assay: qHTS Assay for Inhibitors of PDE-IV (AID 607)
# Conditions: HEK293 ACTOne CNG channel cells, membrane potential fluorescence; series mostly up to 22.9 µM
# How it was run: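 Cell-based read-out of cAMP via a modified cyclic nucleotide-gated channel and membrane potential dye (535/590 nm) in HEK293 cells expressing PDE4 endogenously. Compounds tested up to 22.9 uM final; 100 uM RO 20-1724 reference.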
# Potency is read from the fitted curve at half-maximal effect; tags tell the direction and shape of the fitted curve.
# UniProt Q07343, sequence (Q07343 whole entry, looked up): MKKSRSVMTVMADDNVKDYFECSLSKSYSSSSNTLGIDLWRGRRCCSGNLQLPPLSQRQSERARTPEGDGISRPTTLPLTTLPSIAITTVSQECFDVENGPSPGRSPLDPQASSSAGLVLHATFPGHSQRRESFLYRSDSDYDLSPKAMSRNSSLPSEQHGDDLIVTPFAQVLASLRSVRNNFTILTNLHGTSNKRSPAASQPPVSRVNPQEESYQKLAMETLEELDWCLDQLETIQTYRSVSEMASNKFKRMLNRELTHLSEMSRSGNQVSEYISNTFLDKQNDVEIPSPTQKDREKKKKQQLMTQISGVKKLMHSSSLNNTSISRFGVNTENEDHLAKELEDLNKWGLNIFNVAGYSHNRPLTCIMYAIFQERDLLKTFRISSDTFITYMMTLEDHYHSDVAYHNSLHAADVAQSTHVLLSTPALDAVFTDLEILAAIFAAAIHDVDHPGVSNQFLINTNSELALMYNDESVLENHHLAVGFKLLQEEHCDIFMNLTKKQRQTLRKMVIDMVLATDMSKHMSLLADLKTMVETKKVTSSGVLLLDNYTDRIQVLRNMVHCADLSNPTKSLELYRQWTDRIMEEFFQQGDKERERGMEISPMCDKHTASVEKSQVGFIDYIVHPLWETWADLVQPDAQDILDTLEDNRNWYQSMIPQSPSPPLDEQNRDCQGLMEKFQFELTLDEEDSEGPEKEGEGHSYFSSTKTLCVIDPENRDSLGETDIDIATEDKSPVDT
row,Structure (SMILES),Potency
1,COc1ccc(-c2nc3cnc(OC)nc3n(Cc3ccc(F)cc3)c2=O)cc1,"inconclusive: 7.94 µM [activator, single point]"
2,C[C@@H](N)/C(N)=N/O,inactive
3,COCCNc1ncncc1-c1c(C)noc1C,inactive
4,C[C@@H](C(=O)Nc1ccc2ccccc2c1)[C@@H]1C[C@@]1(C)[C@@H](N)c1ccccc1,inactive
5,Cc1cc(N2CCCCC2)nc2ccc(Cc3ccc4nc(N5CCCCC5)cc(C)c4c3)cc12,"inconclusive: 7.94 µM [activator, partial curve]"
6,CC(C)(C)[Si](C)(C)c1c2c(nc3ccc(OCc4ccccc4)cc13)-c1cccc(=O)n1C2,"inconclusive: 10 µM [activator, partial curve]"
7,CCCC[C@@H]1C[C@H]1C(NC(=O)c1ccccc1)c1ccc(Cl)cc1 (stereo partly drawn),"inconclusive: 10 µM [rising, partial curve]"
8,C=C1C(=O)O[C@H]2C[C@@]3(C)CCCC(=C)[C@@H]3C[C@H]12,active: 7.55 µM
9,Clc1ccc(CSCCc2ccncc2)cc1Cl,inactive
10,COc1ccccc1CCn1c(=O)c(C)nc2cncnc21,inactive
11,CCCC[C@@H]1C[C@H]1C(NC(=O)c1cccs1)c1ccc(C(F)(F)F)cc1 (stereo partly drawn),"inconclusive: 1.58 µM [rising, full curve, poor fit]"
12,COc1ccc2c(c1)[C@]1(C)CCC[C@](C)(CO)[C@@H]1CC2,"inconclusive: 15.1 µM [rising, partial curve]"
13,Oc1ccc2ccccc2c1CN(Cc1c(O)ccc2ccccc12)C1CCCCC1,inactive
14,CCCC[C@@H]1C[C@H]1C(NC(=O)c1ccccc1)c1ccc(C(F)(F)F)cc1 (stereo partly drawn),"inconclusive: 3.16 µM [activator, single point]"
15,Nc1cccc2cc(S(=O)(=O)Nc3ccc(C(=O)O)cc3)ccc12,inactive
16,CCCC[C@@H]1C[C@H]1C(NC(=O)c1ccco1)c1ccccc1 (stereo partly drawn),"inconclusive: 6.31 µM [rising, partial curve]"
17,COC(=O)[C@H]1C[C@@H]1[C@H](NC(C)=O)c1ccccc1,inactive
18,COc1ccc2c(=O)cc(-c3ccccc3)oc2c1O,inactive
19,CNC(=O)[C@H](C)[C@@H]1C[C@@]1(C)[C@@H](NC(=O)OCc1ccccc1)c1ccccc1,inactive
20,CCCC/C=C/C(NC(=O)c1cccs1)c1ccccc1 (stereo not drawn),"inconclusive: 10 µM [rising, partial curve]"
21,N[C@@H](Cc1cccc([N+](=O)[O-])c1)C(=O)O,inactive
22,NC1=C2NC=N[C@@H]2N(C/C=C\c2ccccc2)C=N1,inactive
23,C[Si](C)(C)C#Cc1ccccc1NC(=S)Nc1ccccc1,"inconclusive: 10 µM [activator, partial curve]"
24,CC(=O)N1CCC[C@@]2(CCN(Cc3ccccc3)C2)C1,inactive
25,COc1cc2c(cc1OC)-c1c(OC)c(OC)cc3ccnc(c13)C2=O,"inconclusive: 19 µM [inhibitor, single point]"
26,CCC/C=C(\CCC)C(NC(=O)c1cccs1)c1ccc(C(F)(F)F)cc1 (stereo not drawn),"inconclusive: 0.794 µM [activator, full curve, poor fit]"
27,COc1ccc(CNC(=O)[C@H](C)[C@@H]2C[C@@]2(C)[C@@H](NC(=O)OCc2ccccc2)c2ccccc2)cc1OC,"inconclusive: 12.6 µM [activator, partial curve]"
28,CCCC[C@@H]1C[C@H]1C(NC(=O)c1ccccc1)c1ccccc1 (stereo partly drawn),"inconclusive: 7.94 µM [activator, partial curve]"
